# Results reported in article PMC10885370.
# The chains behind the UniProt entries cited, without tags or fusion partners.
# UniProt P54578: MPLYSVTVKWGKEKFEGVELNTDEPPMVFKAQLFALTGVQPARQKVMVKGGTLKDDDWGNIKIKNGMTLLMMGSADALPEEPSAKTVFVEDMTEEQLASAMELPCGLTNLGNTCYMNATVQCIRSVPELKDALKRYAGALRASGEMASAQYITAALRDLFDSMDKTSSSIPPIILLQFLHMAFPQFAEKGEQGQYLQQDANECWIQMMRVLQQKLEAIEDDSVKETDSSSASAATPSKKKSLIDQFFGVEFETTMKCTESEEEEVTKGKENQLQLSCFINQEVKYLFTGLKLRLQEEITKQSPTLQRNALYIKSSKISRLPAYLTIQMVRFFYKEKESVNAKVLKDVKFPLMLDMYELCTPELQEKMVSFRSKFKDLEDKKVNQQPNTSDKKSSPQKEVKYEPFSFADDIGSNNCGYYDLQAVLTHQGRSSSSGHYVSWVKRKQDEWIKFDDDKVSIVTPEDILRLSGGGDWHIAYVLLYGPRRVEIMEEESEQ
# These are yes or no findings as the source states them, for the method shown. Binding seen in cells or lysates may run through a third protein. Some results given as binding are weak or reduced against the parent protein; the word gives no strength. For some of these results: Sequences can lack the tags named with a protein.
# B1: Flag-tagged phosphofructokinase-1 liver type (PFKL), expressed in HEK293T cells (enzyme, UniProt P17858 1-780)
# chain: MAAVDLEKLRASGAGKAIGVLTSGGDAQGMNAAVRAVTRMGIYVGAKVFLIYEGYEGLVEGGENIKQANWLSVSNIIQLGGTIIGSARCKAFTTREGRRAAAYNLVQHGITNLCVIGGDGSLTGANIFRSEWGSLLEELVAEGKISETTARTYSHLNIAGLVGSIDNDFCGTDMTIGTDSALHRIMEVIDAITTTAQSHQRTFVLEVMGRHCGYLALVSALASGADWLFIPEAPPEDGWENFMCERLGETRSRGSRLNIIIIAEGAIDRNGKPISSSYVKDLVVQRLGFDTRVTVLGHVQRGGTPSAFDRILSSKMGMEAVMALLEATPDTPACVVTLSGNQSVRLPLMECVQMTKEVQKAMDDKRFDEATQLRGGSFENNWNIYKLLAHQKPPKEKSNFSLAILNVGAPAAGMNAAVRSAVRTGISHGHTVYVVHDGFEGLAKGQVQEVGWHDVAGWLGRGGSMLGTKRTLPKGQLESIVENIRIYGIHALLVVGGFEAYEGVLQLVEARGRYEELCIVMCVIPATISNNVPGTDFSLGSDTAVNAAMESCDRIKQSASGTKRRVFIVETMGGYCGYLATVTGIAVGADAAYVFEDPFNIHDLKVNVEHMTEKMKTDIQRGLVLRNEKCHDYYTTEFLYNLYSSEGKGVFDCRTNVLGHLQQGGAPTPFDRNYGTKLGVKAMLWLSEKLREVYRKGRVFANAPDSACVIGLKKKAVAFSPVTELKKDTDFEHRMPREQWWLSLRLMLKMLAQYRISMAAYVSGELEHVTRRTLSMDKGF
# B2: phosphofructokinase-1 liver type (PFKL), endogenous in HN4 cells (enzyme, UniProt P17858 1-780)
# chain: B1 chain
# B3: phosphofructokinase, muscle isozyme (PFKM) (enzyme, UniProt P08237 1-780)
# chain: MTHEEHHAAKTLGIGKAIAVLTSGGDAQGMNAAVRAVVRVGIFTGARVFFVHEGYQGLVDGGDHIKEATWESVSMMLQLGGTVIGSARCKDFREREGRLRAAYNLVKRGITNLCVIGGDGSLTGADTFRSEWSDLLSDLQKAGKITDEEATKSSYLNIVGLVGSIDNDFCGTDMTIGTDSALHRIMEIVDAITTTAQSHQRTFVLEVMGRHCGYLALVTSLSCGADWVFIPECPPDDDWEEHLCRRLSETRTRGSRLNIIIVAEGAIDKNGKPITSEDIKNLVVKRLGYDTRVTVLGHVQRGGTPSAFDRILGSRMGVEAVMALLEGTPDTPACVVSLSGNQAVRLPLMECVQVTKDVTKAMDEKKFDEALKLRGRSFMNNWEVYKLLAHVRPPVSKSGSHTVAVMNVGAPAAGMNAAVRSTVRIGLIQGNRVLVVHDGFEGLAKGQIEEAGWSYVGGWTGQGGSKLGTKRTLPKKSFEQISANITKFNIQGLVIIGGFEAYTGGLELMEGRKQFDELCIPFVVIPATVSNNVPGSDFSVGADTALNTICTTCDRIKQSAAGTKRRVFIIETMGGYCGYLATMAGLAAGADAAYIFEEPFTIRDLQANVEHLVQKMKTTVKRGLVLRNEKCNENYTTDFIFNLYSEEGKGIFDSRKNVLGHMQQGGSPTPFDRNFATKMGAKAMNWMSGKIKESYRNGRIFANTPDSGCVLGMRKRALVFQPVAELKDQTDFEHRIPKEQWWLKLRPILKILAKYEIDLDTSDHAHLEHITRKRSGEAAV
# B4: phosphofructokinase, platelet isozyme (PFKP), Q01813 1-784 (enzyme)
# chain: MDADDSRAPKGSLRKFLEHLSGAGKAIGVLTSGGDAQGMNAAVRAVVRMGIYVGAKVYFIYEGYQGMVDGGSNIAEADWESVSSILQVGGTIIGSARCQAFRTREGRLKAACNLLQRGITNLCVIGGDGSLTGANLFRKEWSGLLEELARNGQIDKEAVQKYAYLNVVGMVGSIDNDFCGTDMTIGTDSALHRIIEVVDAIMTTAQSHQRTFVLEVMGRHCGYLALVSALACGADWVFLPESPPEEGWEEQMCVKLSENRARKKRLNIIIVAEGAIDTQNKPITSEKIKELVVTQLGYDTRVTILGHVQRGGTPSAFDRILASRMGVEAVIALLEATPDTPACVVSLNGNHAVRLPLMECVQMTQDVQKAMDERRFQDAVRLRGRSFAGNLNTYKRLAIKLPDDQIPKTNCNVAVINVGAPAAGMNAAVRSAVRVGIADGHRMLAIYDGFDGFAKGQIKEIGWTDVGGWTGQGGSILGTKRVLPGKYLEEIATQMRTHSINALLIIGGFEAYLGLLELSAAREKHEEFCVPMVMVPATVSNNVPGSDFSIGADTALNTITDTCDRIKQSASGTKRRVFIIETMGGYCGYLANMGGLAAGADAAYIFEEPFDIRDLQSNVEHLTEKMKTTIQRGLVLRNESCSENYTTDFIYQLYSEEGKGVFDCRKNVLGHMQQGGAPSPFDRNFGTKISARAMEWITAKLKEARGRGKKFTTDDSICVLGISKRNVIFQPVAELKKQTDFEHRIPKEQWWLKLRPLMKILAKYKASYDVSDSGQLEHVQPWSV
# Experiments:
# [1] = target: HA-tagged ubiquitin-specific protease 14 (USP14), expressed in HEK293T cells (human) (UniProt P54578); assay: co-IP; whole-cell lysates of HEK293T cells expressing HA-USP14 and Flag-PFKL; lysis buffer 1% NP-40, 50 mM Tris-HCl pH 7.4, 150 mM NaCl, 5 mM EDTA, 0.02% SDS; protein A/G agarose; Western blot
# [2] = target: ubiquitin-specific protease 14 (USP14), endogenous in HN4 cells (human (endogenous in HN4)) (UniProt P54578); assay: co-IP; endogenous proteins in HN4 cell lysate; lysis buffer 1% NP-40, 50 mM Tris-HCl pH 7.4, 150 mM NaCl, 5 mM EDTA, 0.02% SDS; antibody or IgG control overnight at 4 °C, protein A/G agarose; Western blot
# [3] = target: HA-tagged ubiquitin-specific protease 14 (USP14), stably overexpressed in HN4 cells (human) (UniProt P54578); assay: co-IP; whole-cell lysates of HN4 cells stably expressing HA-USP14; lysis buffer 1% NP-40, 50 mM Tris-HCl pH 7.4, 150 mM NaCl, 5 mM EDTA, 0.02% SDS; antibody or IgG control overnight at 4 °C, protein A/G agarose; Western blot
# [4] = target: ubiquitin-specific protease 14 (USP14), endogenous in HN4 cells (human (endogenous in HN4)) (UniProt P54578); assay: co-IP; immunoprecipitation with USP14 antibody (Fig. S2A), Western blot; cells not named in the legend
# [5] = target: HA-tagged ubiquitin-specific protease 14 (USP14), stably overexpressed in HN4 cells (human) (UniProt P54578); assay: co-IP; immunoprecipitation with HA antibody (Fig. S2B), Western blot; cells not named in the legend
# [6] = target: ubiquitin-specific protease 14 (USP14), endogenous in HN4 cells (human (endogenous in HN4)), P54578; assay: co-IP; immunoprecipitation with USP14 antibody (Fig. S2A), Western blot; cells not named in the legend; conditions: remark: other sources report otherwise
# [7] = target: HA-tagged ubiquitin-specific protease 14 (USP14), stably overexpressed in HN4 cells (human), P54578; assay: co-IP; immunoprecipitation with HA antibody (Fig. S2B), Western blot; cells not named in the legend; conditions: remark: other sources report otherwise
binder,measurement,setting,value
B1,binding,[1],binds
B2,binding,[2],binds
same,binding,[3],binds
B3,binding,[4],no binding
same,binding,[5],no binding
B4,binding,[6],no binding
same,binding,[7],no binding
